Data on 56 variants can be found in the RNAGym collection of RNA variant scans (doi:10.7554/elife.90254).

The source gives no read counts; variants with many changes may rest on few reads.

First the molecules themselves.
B1: LINE1-mini (parent)
chain: GGCAGAGCUCAACACAGCGUGGCAAAGUGGCUGUGGCUAGACUGCC

Variants of B1 are the subject of the data set. Kind of data set: self-cleavage, relative activity (ratio to wild type); higher = more cleavage; in vitro, sequencing; the parent is a self-cleaving ribozyme.
As to GGCAGAACUCAACACAGCGUGGCAAAUUGUCUGUGGCUAGACUGCC [G7A G27U G30U], the self-cleavage came out at 0.02. Regarding GGCAGAACGCAACACAGCGUGGCAAUGUCGCUGUGGCUUGACUGCC [G7A U9G A26U G29C A39U], the self-cleavage was 0.01. Under GGCAGAACUCAACACAGCGCGGCAAAGUGGCUGUGGCUAGAGUGCC [G7A U20C C42G] stands 0.03; under GGCAGAACCCAACACAGCGUGGCAAAGUGGCUUUGGCUAGACUGCC [G7A U9C G33U], 0.02. In the case of GGCAGAACUCAACACAGCGUGGCAAAGUGGCCGUGGCUAGGCUGCC [G7A U32C A41G], the self-cleavage was 0.1.

Regarding GGCAGAACUCAACACAGCGUGGCAAAGUGAUUGUGGGUAGACUGCC [G7A G30A C31U C37G], the self-cleavage worked out at 0.03.

GGCAGAACUCAACACAGCGUGGCAAAAUGGCUGUGGCUAGAUUGCC [G7A G27A C42U]: the self-cleavage was 0.08.

Take GGCAGAACUCAACACAGCGUGGCAAAGUCGCUUUGUUUAGAUUGCC [G7A G29C G33U G36U C37U C42U]: the self-cleavage came out at 0.01. Under GGCAGAACUCAACACAGCGUGUCAAAGUGGCUAUGGCAAGACUGCC [G7A G22U G33A U38A] stands 0.25; under GGCAGAACUCAACACAGCGUGUCAAAAUGGCCGUGUCUAGACUGCC [G7A G22U G27A U32C G36U], 0.25; under GGCAGAACUCAACACAGCGUGGCAAAGUGGCUGUGGCUAGACUACG [G7A G44A C46G], 0.33. Regarding GGCAGAACUCAACACAGCGUGGCAAAGUGGCUAUGGCUAUACGGAC [G7A G33A G40U U43G C45A], the self-cleavage stood at 0.07. For GGCAGAACUCAACACAGCGUGCCAAAAUGGCUGUGGCUAGACUGCC [G7A G22C G27A] the value was 0.07; for GGCAGAACUCAACACAGCGUGGCAAAGUCUCUGUGGCUAGACUGCC [G7A G29C G30U], 0.1; for GGCAGAACUCAACACAGCGUGGCAAACUGGCUGUGGCUAUACUGCC [G7A G27C G40U], 0.32. Under GGCAGAACGCAACACAGUGGGGCAAAGUGGCUGUGACUAGACGGGC [G7A U9G C18U U20G G36A U43G C45G] stands 0.04. With GGCAGAACCCAACAUAGCCUGGCAAAGUCGCUGGGGCUAGACUGCC [G7A U9C C15U G19C G29C U34G], the self-cleavage was 0.01. For GGCAGAACCCAACACAGCGUGCCAAAGUGGCCGUGGCUAGAAUGCC [G7A U9C G22C U32C C42A] the value was 0.01; for GGCAGAACUCAACACAGCGUGGCAAAGUGGCUAUGGUUAGACUGCC [G7A G33A C37U], 0.24.

Turning to GGCAGAACUCAACACAGCGUGGCAAAGUGGCUGUAGUUAGACUGCC [G7A G35A C37U], the self-cleavage amounted to 0.58. In the case of GGCAGAACUCAACACAGCGUGGCAAAGUGGCUGUGCCUAGACCGCC [G7A G36C U43C], the self-cleavage amounted to 0.16. For GGCAGAACGCAAUACUGCGUGGCAAAGUGGCUGUGGCUAGACUGCC [G7A U9G C13U A16U] the value was 0.13; for GGCAGAACUCAACACAGCGAGGCAAAGUGGCUGUGGCUGGACUGCC [G7A U20A A39G], 0.09; for GGCAGAACUCAACACAGCGUGGCAAAGUGGCGGUGGCUAGAAUGCC [G7A U32G C42A], 0.42. For GGCAGAACUCAACACAGCGUGGCAAAGUUGAUGUGGCUAGACUGCC [G7A G29U C31A] the value was 0.09; for GGCAGAACCCAACACAUCGUGUCAAAGUGGCUGUGGCUAGACUGCG [G7A U9C G17U G22U C46G], 0.03. For GGCAGAACUCAACACAGCGGAGCAAAGUGGCUGUGGCUAGACUGCC [G7A U20G G21A] the value was 0.07. Turning to GGCAGAACUCAACACAGCGUGGCAAAGUGGCAGUGUCUAGAUUGCC [G7A U32A G36U C42U], the self-cleavage was 0.05.

Turning to GGCAGAACUCAACACAGCGUGGCAAAGAUGCUGUGGAUAGACUGCC [G7A U28A G29U C37A], the self-cleavage was 0. In the case of GGCAGAACUCAACACAGCGUGGCAAAGGGGCUGUGUCUAGACUGCC [G7A U28G G36U], the self-cleavage stood at 0.05.

On to GGCAGAACUCAACACAGCGUGGCAAAGUGGCUGUGGCUAAUCUGCC [G7A G40A A41U], for which the self-cleavage was 0.23. GGCAGAACUCAACACAGCGUGGCAAAGUGACUGUGGCUCGGCUGCC [G7A G30A A39C A41G]: the self-cleavage was 0.15. Regarding GGCAGAACUCAACACAGCGUGUCAAAGUGCCUGUGGCUUGACUGCC [G7A G22U G30C A39U], the self-cleavage was 0.97. Turning to GGCAGAACUCAACACAGCGUGGCAAAGUGGCGGUGGCUAGACUGUC [G7A U32G C45U], the self-cleavage was found to be 0.1.

GGCAGAACACAACACAGCGUGGCAAAGUGGCUGCGGCUAGACUUCC [G7A U9A U34C G44U]: the self-cleavage turned out to be 0.22. On to GGCAGAACUCAACACAGCGGGGAAAAGGGGCUGUGGCUAGACUGCC [G7A U20G C23A U28G], for which the self-cleavage is 0.03. For GGCAGAACUCAACACAGCGUGGCAAAGUGGCUACGGCUAGACUGCC [G7A G33A U34C] the value was 0.11; for GGCAGAACUCAACACAGCGUGUCAAAGUGGCUAUGGCUAUACUGCC [G7A G22U G33A G40U], 0.35; for GGCAGAACUCAACACAGCGUGGCAAAGUCGCUGUGACCAGACUGCC [G7A G29C G36A U38C], 0.23. In the case of GGCAGAACUCAACACAGCGUGGCAAAAUGGCUGUGGCUAAAUUGCC [G7A G27A G40A C42U], the self-cleavage was 0. For GGCAGAACUCAACACAGCGAGGCAAAUUGGCUAUGGCUAGACUGCC [G7A U20A G27U G33A] the value was 0.11.

With GGCAGAACUCAACACAGCGUGUCAAAGUGGCUGGGGCUAGACUGCC [G7A G22U U34G], the self-cleavage was determined as 0.12. For GGCAGAACUCAACACAGCGUGGCAAAGUGGCUGUUGCUAGAAUGCC [G7A G35U C42A] the value was 0.14; for GGCAGAACUCAACACAGCGUGGCAAAAUGACUGUGGCUAGAAUGCC [G7A G27A G30A C42A], 0.36; for GGCAGAACUCAACACAGCGUGGCAAAGUGGCUCAGGCUAGGCUGCC [G7A G33C U34A A41G], 0.01.

In the case of GGCAGAACUCAACACAGCGUGGCAAAGUUGCUGUGGCUAGAUUGCC [G7A G29U C42U], the self-cleavage stood at 0.17.

With GGCAGAACUCAACACAGCGGGGCAAAGUGGUUGUGGCUAGACUGCC [G7A U20G C31U], the self-cleavage is 0.07. For GGCAGAACUCAACACAGCGAGGCAAAGUUGCUGUGGCUAGACUGCA [G7A U20A G29U C46A], the self-cleavage was 0.08. Under GGCAGAACUCAACACAGCGAGGCAAACUGGCUGUGGCUAGACUGCC [G7A U20A G27C] stands 0.02; under GGCAGAACUCAACACAGCGACGCAAAGUGGCGGUGGCUAGACUGCC [G7A U20A G21C U32G], 0.03; under GGCAGAACUCAACACAGCGUGGCAAAGUAGCUGGGGCUAGACUGUC [G7A G29A U34G C45U], 0.29.

As to GGCAGAACUCAACACAGCGUGGCAAAGUGACUGUGGGUUGACUGCU [G7A G30A C37G A39U C46U], the self-cleavage was found to be 0.09. With GGCAGAACUCAACACAGCGUGGCAAAGUGUAUGUGGCUAGACUGCC [G7A G30U C31A], the self-cleavage was determined as 0.09.

GGCAGAACUCAACACAGCGUGGCAAAGUAGCGGUGGCUAGUCUGCC [G7A G29A U32G A41U]: the self-cleavage came to 0.04.

With GGCAGAACUCAACACAGCGUGGCAAAGUGGCUGGGGCUCGACUGCC [G7A U34G A39C], the self-cleavage amounted to 0.02. Turning to GGCAGAACGCAACACAGCGUGGCAAACUGGCUGUGGCUAGACUGCC [G7A U9G G27C], the self-cleavage came out at 0.22.
